# The other results are listed elsewhere or left out. At the low end of the ranking the order means little.
# Molecular target: T1, GST-Rok (full length) (UniProt O34857)
# T1 sequence: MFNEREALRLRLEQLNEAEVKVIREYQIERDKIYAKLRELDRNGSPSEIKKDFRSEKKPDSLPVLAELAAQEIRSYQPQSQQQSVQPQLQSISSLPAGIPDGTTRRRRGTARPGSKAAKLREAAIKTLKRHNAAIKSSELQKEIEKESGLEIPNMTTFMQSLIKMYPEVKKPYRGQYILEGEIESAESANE
# Experiment: protein binding microarray;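 further: rank score from −0.5 (least bound) to 0.5 (best bound)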
# Details: Rok is a gene silencer of Bacillus subtilis; high values mean tight binding; most listed sequences are background and not binding sites; double strand, one strand shown
row,Sequence,binding signal [E-score]
1,AAAAGACG,0.152
2,GCTAGACA,0.0674
3,ATTCCACC,-0.0807
4,CCCGCTCA,-0.215
5,ATCCCGTG,-0.204
6,GAACGTCC,-0.198
7,ACCCCTGA,-0.234
8,AGAACATG,0.223
9,GCTAGAAA,0.37
10,CTGAGTCC,-0.133
11,CCAAACGG,-0.0104
12,CCACCTAC,0.011
13,AATCGAAG,0.0698
14,CCAGACCG,-0.106
15,GCAAGCAA,-0.286
16,CTATTCGC,-0.0046
17,AGGATGTA,0.212
18,CTGTTTGA,-0.0886
19,CAACTAGC,0.203
20,AAGGTAAC,-0.0144
21,GATTTGTA,0.249
22,GGTTGAAC,-0.252
23,CTCGGGTA,0.00435
24,GTTCCTAA,-0.069
25,AAGTCAAG,-0.0478

row,Sequence,binding signal [E-score]
1,CGGTTGGA,-0.0455
2,ATTGTACC,0.239
3,CTAACGCA,0.101
4,CATGAGAG,0.0593
5,GAACGCTA,0.17
6,AGCACGGA,-0.0324
7,AATCCAAC,-2.47e-05
8,CTGCCTAC,-0.0226
9,AAGCCGCG,-0.227
10,AGATTCGG,0.0606
11,ACCCCCCA,-0.367
12,CTGAAGAC,-0.115
13,ATCCTGTC,-0.0982
14,AACTTATC,0.134
15,ACCTGACA,-0.0933
16,CCTAGTCC,-0.227
17,GACGTATA,0.212
18,CTTGGGGC,-0.288
19,GGAAATTA,0.238
20,GAATTCCA,0.0902
21,ACAAGCAT,0.0565
22,ATCCAACA,-0.0381
23,AGGGTAAA,0.204
24,AAATAGTT,0.4
25,ATAGCAGG,-0.1

row,Sequence,binding signal [E-score]
1,AGTCGCGA,-0.177
2,GCTTCTGA,-0.00659
3,AATTCGGT,0.158
4,AAATGGTT,0.13
5,AGACGAAC,0.0305
6,GTACATGA,0.133
7,ATATATAA,0.435
8,GCTCAGGA,-0.0732
9,ATCGATAG,0.361
10,AGCTTCGC,-0.0601
11,CTGCCACA,-0.218
12,AAACCGAT,-0.0521
13,GTTAAGTA,0.191
14,TGTGAAAA,0.0537
15,CGCATACA,0.0781
16,CCACCTTC,-0.204
17,AACAGTAA,0.294
18,GAAGGCTA,-0.119
19,CTTAGTCA,0.256
20,ATACTGAT,0.177
21,AAATGACC,-0.0224
22,AGCGATGC,-0.0603
23,AATTATAT,0.407
24,ATTGCCGC,-0.142
25,GTCTTGGA,-0.061

row,Sequence,binding signal [E-score]
1,GCCTTACC,-0.133
2,CACTATTA,0.268
3,GGGACGGA,-0.315
4,ATAGTATG,0.359
5,CCGTGAAG,-0.295
6,GAAGAGAC,0.00857
7,ACGCGTCA,-0.0563
8,CAGAAGTA,0.21
9,CCGATAAA,0.134
10,GTAATGTA,0.364
11,AACGTTGA,0.0808
12,ACCCACCA,-0.0478
13,ACACCCTA,0.0905
14,GAAAACGC,-0.0784
15,AGAAATAT,0.301
16,ATGCACTA,0.0388
17,GTATAGAC,-0.08
18,GCAGTCTA,0.0175
19,ATCCTTCC,-0.158
20,TCCCTCAA,-0.171
21,GTGAGGAA,-0.165
22,AGGCGGCA,-0.267
23,ACGGATCG,0.0827
24,ATGTATCG,0.219
25,AATGAGTA,0.209

row,Sequence,binding signal [E-score]
1,GCCCTAGA,-0.178
2,GGTGGTTA,-0.274
3,CACACTCG,0.0219
4,TATAATGA,0.298
5,CATCTGCC,-0.269
6,AGGAACCA,0.0529
7,AGCGAGTC,-0.257
8,ACGCATGG,-0.148
9,CAGTTGGA,-0.00562
10,GGGCCACC,-0.408
11,AGAATCGC,0.165
12,GCATTAAC,0.0561
13,CGCCTCGC,-0.421
14,ACAAGTCG,-0.122
15,AAGTACCT,0.251
16,ATTACGCG,0.133
17,ATTGGCTA,-0.0147
18,CCGAAAGA,-0.112
19,CTGTCTAA,-0.0397
20,AGTTAGCA,0.271
21,GAACAATC,-0.0573
22,TAAGCATA,0.101
23,GACGTTTA,-0.0808
24,ACTCGAAT,-0.05
25,GTCTACTA,0.261

row,Sequence,binding signal [E-score]
1,AACAGTTC,0.0688
2,ACGACCCA,-0.125
3,ACCTTACT,0.101
4,GGATCAAC,0.0189
5,CTGATAGA,0.0934
6,ATGAATAA,0.092
7,CCAATACC,-0.0159
8,ATGCAACA,-0.00939
9,CTCGAGTC,-0.273
10,AAAGTACA,0.364
11,AGCGCTCA,-0.102
12,ACACTCAA,0.0227
13,CAACGCCA,0.136
14,AAGCTCCC,-0.304
15,CCCTCCAA,-0.376
16,TAAACTCA,0.157
17,ATAACTAT,0.407
18,CACTTTGA,-0.122
19,CCCGCCGG,-0.336
20,GAGCTTGA,-0.183
21,ATTTTTCC,0.0722
22,AGATGGCC,-0.153
23,AGTTTAGC,0.257
24,TATAAACA,0.254
25,ACCGACCG,-0.221

row,Sequence,binding signal [E-score]
1,AACGGGCA,-0.23
2,GCACTTAC,-0.0436
3,CAGGTCTC,-0.204
4,AACCGCGG,-0.232
5,GACTGTTA,-0.107
6,AGTGTACA,0.192
7,GAGGCAAA,-0.194
8,AGCCGCAG,-0.349
9,AAATGCCA,-0.0326
10,CCTACCGA,0.101
11,CCCCCGAA,-0.428
12,AATGTCAT,0.228
13,GATTCGAA,-0.0274
14,ATCCATTC,-0.196
15,ATGATCTA,0.306
16,CGTGAACA,0.0255
17,GCATCCGC,-0.23
18,CCCGAAGG,-0.367
19,AGACAAGG,-0.0734
20,ACGACGAC,0.0669
21,GCGGCTAC,-0.16
22,TCAACTAA,0.109
23,ATTATTGC,0.154
24,ACGTAGTC,-0.303
25,CCGGTCCA,-0.198

row,Sequence,binding signal [E-score]
1,CTCCATGC,-0.173
2,AGGCCTTC,-0.293
3,GCGTCAAA,-0.0978
4,CTCTAAAC,0.0676
5,CAGCTGGG,-0.0951
6,ACCAATCA,0.0371
7,AGACCCGC,-0.286
8,ATATTTGC,0.285
9,ACCTACAC,0.0853
10,AACTACCT,0.416
11,AAGACGAA,0.134
12,AAGGAACC,-0.152
13,CCTGCGGC,-0.36
14,CAAAACCA,0.0944
15,ACAGATGC,-0.212
16,GATAACAA,0.234
17,ATGTAACG,0.161
18,GAGTTATC,0.119
19,ATTTAAAC,0.0969
20,CTATAACC,0.156
21,CCAGCACA,-0.21
22,GAATGGGA,-0.15
23,ACAGATTA,0.0403
24,AATACAAC,0.287
25,ACAGCTCT,-0.118

row,Sequence,binding signal [E-score]
1,ATAAAAGA,0.0984
2,ATAACCAA,0.276
3,CAATGGAC,-0.0589
4,GGGTTTAA,-0.108
5,CTCTTCGC,0.197
6,AGACGTTA,0.0403
7,AAGTTAAC,0.232
8,CGCAAAGA,-0.142
9,AGAGGGCG,-0.286
10,CGGTGGTA,0.202
11,GGCGGCAC,-0.156
12,TATCTACA,0.348
13,CCGGCGGC,-0.371
14,CATCACCG,-0.233
15,GGTTTTTA,0.294
16,GTGGCGTA,-0.00523
17,ACTATGGA,-0.00972
18,CAACAGGG,-0.0798
19,GAGCCGGA,-0.366
